# Data reported in the supplement of paper PMC3334620.
# Whole data set: some 33,000 sequences, median “E-score (-0.5 to 0.5)” near -0.01, cut for the highest 2% near 0.26. Some of the results follow.
# Target: Ste12 (UniProt P13574)
# Assay: PBM E-score (8-mer binding enrichment) (E-score (-0.5 to 0.5)); higher = stronger / more preferred TF binding; most listed sequences are background and not binding sites
# Conditions: protein concentration: 200 nM; construct: GST-DNA-binding domain
# Summary of the method: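 Universal all-10-mer Agilent arrays, fresh or stripped once, were converted to double-stranded form by primer extension. GST-tagged yeast transcription factors from PURExpress in vitro transcription/translation, full-length or DNA-binding domain only, were applied at about 100-200 nM and detected with fluorescent anti-GST. After masliner normalisation, the Universal PBM Analysis Suite scored each ungapped eight-base word together with its reverse complement by E-score.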
row,Sequence,PBM E-score
1,AACCCGGT,-0.124
2,GAAAAGGC,-0.101
3,CAAGAGCA,-0.0638
4,ATCCACCA,-0.0214
5,CCACGCAA,0.00422
6,CTTGCTTA,-0.0912
7,ACGCGCAC,-0.134
8,GAAGAGCA,-0.107
9,CGCCTCCC,0.0638
10,GAAGCTCA,-0.175
11,AATTGGGG,-0.117
12,AGGCAGCC,0.0255
13,AAAACGGG,0.236
14,ACTCGAGT,0.0731
15,CACCCAGC,-0.0309
16,GCTCAGAC,0.00203
17,AACCCGTT,-0.0712
18,TAGTTGGA,0.16
19,TCGGCTAA,0.128
20,AGACGGTA,-0.0164
21,AGAATGAA,0.181
22,AGTTTGAG,0.172

row,Sequence,PBM E-score
1,AGTATGAA,0.184
2,AGAAGCGG,-0.163
3,CCGTGGGC,-0.0927
4,AGCCAGTC,-0.204
5,AGACTGCC,-0.0748
6,CACCACCG,-0.0489
7,ACTAAGCT,0.0629
8,ATGACGAA,0.0271
9,CTACCAGC,-0.113
10,ACTCGGAC,-0.135
11,CAGAGGGC,-0.164
12,ACTACAGG,-0.0636
13,CAATGCTC,-0.0778
14,ATTGTAAG,0.0661
15,CAAACTTG,0.0449
16,CGGCACCG,-0.0566
17,AATGCCGC,0.101
18,CACGACTC,-0.162
19,GAACAACC,0.00021
20,AACCCGGG,0.0825
21,GAGGGTGA,-0.0363
22,TAGCTAGA,-0.0709

row,Sequence,PBM E-score
1,AAGTACGG,-0.0506
2,CATAGTAG,0.0596
3,CTATGAGC,-0.118
4,AAGTCCCC,-0.0984
5,AGGTACCC,-0.148
6,CTTATAGC,-0.156
7,CATCCAAC,-0.0817
8,ATGAGGCA,0.00856
9,GACGTTGC,-0.14
10,ATATGCGC,-0.0144
11,ATATCATA,0.0543
12,ATAGGGGA,-0.0128
13,GGCCGTGA,0.0209
14,GCAGTCGC,0.0379
15,CTGCCCTA,-0.202
16,AAGAATGG,-0.0352
17,CGATCGTA,0.0721
18,AATATTTC,0.254
19,AGTTTGCG,0.122
20,TAGGAGCA,-0.109
21,CTAAGCCC,-0.167
22,GATGTCGA,-0.114

row,Sequence,PBM E-score
1,CGAGGGAC,-0.213
2,CTACCTAG,-0.178
3,AAGGTAAT,0.0565
4,AACTGGCG,0.0203
5,GCACGACA,-0.186
6,TCGAGAGA,-0.0288
7,ACGGAATC,-0.097
8,AAAAGTCG,0.0918
9,GTGATTAA,0.13
10,GATTCTAC,-0.0765
11,AACTCCAT,-0.173
12,GCGGTTCC,0.0504
13,AAACGCGT,0.255
14,CAATCTCA,0.183
15,CGGCCGCA,0.1
16,AAACCAGT,0.142
17,CGAACTCA,-0.0491
18,GCAGCCAC,0.0568
19,ATACTCCA,0.0877
20,ACCCTGTG,-0.155
